# Assay results taken from the supplement of paper PMC3334620.
# Whole data set: some 33,000 sequences, median “E-score (-0.5 to 0.5)” near -0.016, cut for the highest 2% near 0.32. The list shows a part of the results.
# Molecular target: T1, Stp1 (UniProt B3LFK1)
# T1 sequence: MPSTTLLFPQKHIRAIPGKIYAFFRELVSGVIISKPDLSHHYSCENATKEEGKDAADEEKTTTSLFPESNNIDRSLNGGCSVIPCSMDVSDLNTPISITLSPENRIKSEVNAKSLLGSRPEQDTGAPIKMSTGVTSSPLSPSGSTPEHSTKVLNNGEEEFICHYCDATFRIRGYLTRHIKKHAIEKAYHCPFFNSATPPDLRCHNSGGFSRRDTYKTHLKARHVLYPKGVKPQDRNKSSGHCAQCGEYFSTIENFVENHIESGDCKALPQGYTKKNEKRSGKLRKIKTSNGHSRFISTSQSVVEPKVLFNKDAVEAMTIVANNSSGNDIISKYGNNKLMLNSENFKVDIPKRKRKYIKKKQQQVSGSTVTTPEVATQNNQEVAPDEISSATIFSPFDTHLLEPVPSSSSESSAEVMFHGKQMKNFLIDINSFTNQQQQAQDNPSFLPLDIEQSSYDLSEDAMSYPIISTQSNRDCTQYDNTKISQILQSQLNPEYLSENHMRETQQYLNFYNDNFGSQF
# Assay: PBM E-score (8-mer binding enrichment) (E-score (-0.5 to 0.5)); higher = stronger / more preferred TF binding; most listed sequences are background and not binding sites
# Settings: protein concentration: 200 nM; construct: GST-full length
# Method in brief: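 Universal all-10-mer Agilent arrays, double-stranded by primer extension on fresh or once-stripped slides, were probed with about 100-200 nM GST-tagged yeast transcription factors made by PURExpress. Fluorescent anti-GST detected bound protein, and masliner normalised the scans. E-scores from the Universal PBM Analysis Suite were given to each ungapped eight-base word pooled with its reverse complement.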
row,Sequence,PBM E-score
1,GGGCCTGA,-0.296
2,CACTCGCC,0.203
3,AGCCTACA,-0.0558
4,ACCGTGAA,-0.0275
5,AGGGCATG,0.0868
6,ACCTCAGC,-0.101
7,ATTAGCTC,-0.13
8,CCGCACCG,0.288
9,ATAACCTA,-0.0129
10,CTTGCCGA,-0.128
11,GGGGCGCA,0.126
12,ACACGCTC,0.0368
13,CAGACTCG,-0.185
14,ATCTAGCC,0.126
15,ACATTGAA,0.141
16,ATGTCATC,-0.214
17,CACGAAGA,0.158
18,CAACAGCC,0.188
19,CCGGTACA,-0.2
20,ACTGATGG,-0.11
21,AGTGCCAG,-0.105
22,ACGTAGTA,0.103
23,ACGGGCGA,-0.0527
24,ACAGGTGC,-0.0189
25,CGGGGACC,-0.15

row,Sequence,PBM E-score
1,AAGCATTC,-0.00856
2,ATTCCGAG,-0.0185
3,AGACTACA,-0.154
4,AATCGTCT,0.129
5,CAGGTTCG,-0.105
6,ACGCTTAG,-0.149
7,AGGCGTCA,0.172
8,AGTGTATG,0.161
9,CTAAGGAC,-0.103
10,TTAAGTAA,-0.0214
11,GACAAAAC,-0.00337
12,ATTTATGC,0.0882
13,ACTTGTCC,-0.0113
14,ATTAGCGA,0.0934
15,ATTACATC,0.123
16,CTAAGGTA,0.164
17,CTTACGCA,0.00976
18,AATACGTC,0.0822
19,CACTGGCA,-0.0309
20,CGGAGGCC,-0.0252
21,CTATTGAA,0.199
22,CCAGCTCG,-0.156
23,TCATACAA,0.122
24,ATATTCTG,-0.053
25,ATTGTCAG,-0.0247

row,Sequence,PBM E-score
1,AGCGACCC,-0.0739
2,AGGGGATC,-0.23
3,GTCTGCAA,-0.0438
4,ACAAGCCT,0.0381
5,AGGTATAT,-0.0343
6,TAGTGACA,0.0544
7,GGTAGCTA,-0.301
8,AGATAAGG,0.0189
9,AGCCGCAG,0.258
10,CGTAATCC,0.00113
11,GAGAGACA,-0.32
12,ACTGTACC,-0.239
13,GCAGTTCC,-0.0465
14,AGTACATA,0.102
15,ATTCTCAA,0.152
16,CAGCTTGA,-0.0612
17,AGTCTAAG,-0.00282
18,ATATATGG,0.174
19,ACCATATC,-0.01
20,AGGTTAAA,-0.122
21,ACACAGAC,0.0537
22,CGAGGGCG,-0.052
23,AATTAGAG,-0.0445
24,AAAAAGCT,-0.079
25,CTCACTAC,-0.0257

row,Sequence,PBM E-score
1,CCCTGTAA,-0.0443
2,CTAGTTGA,0.0366
3,CCTCGTCA,0.239
4,ACTCAGTG,-0.139
5,AGGGTAAT,0.0034
6,ACGATTCA,0.0286
7,AAATGCTA,0.098
8,AGAATATA,-0.0127
9,AACGGGCA,0.171
10,AATGCATC,-0.114
11,GGCCGACC,-0.225
12,TATGCAAA,-0.00692
13,TCCTCAAA,-0.0557
14,CGCTCCCC,-0.167
15,CCGTTTCA,0.281
16,ACAGGTTG,-0.251
17,GCAACCGC,0.1
18,ATGGAAAG,0.103
19,ACGCAAGA,-0.0151
20,AAGTCATA,0.074
21,GATACTAA,0.165
22,GATTGGAA,0.129
23,AACCGGCG,0.211
24,GTCTCACA,0.0616
25,AGAGGGGA,-0.282

row,Sequence,PBM E-score
1,TACATAGA,0.0247
2,AGCCTCCG,-0.136
3,CTCTACGA,-0.0271
4,CCACGCTA,-0.211
5,CAGTGTCA,0.0177
6,ACGGATAA,0.193
7,CCACTTCC,-0.0391
8,ATCAAGAC,-0.0747
9,AGTTTGAC,0.0772
10,CGCAGAAC,0.217
11,CTGCTGCA,-0.169
12,CATTTCGG,-0.097
13,GACCCATC,-0.264
14,GAAACACA,0.226
15,CGCGGAAA,0.0786
16,CAGCGACA,-0.172
17,CCATCCTC,-0.143
18,TCCTCGCA,-0.00324
19,CAAAGATG,-0.0241
20,AACTTTGA,0.232
21,AGGAAAGA,-0.108
22,ACCCGTCG,-0.0617
23,AGCACTCG,-0.175
24,CGCATCTC,0.101
25,AGTCCTGG,-0.184

row,Sequence,PBM E-score
1,ATTAACGA,0.179
2,CGACAACG,0.185
3,AACTGCGG,0.173
4,CCGCCGAG,0.083
5,ATCTTACG,0.147
6,AAGTTTGG,0.189
7,AATAGAGG,-0.00072
8,ACCGCAAA,0.0936
9,AATTCTTA,-0.0838
10,CCCGGGAA,-0.209
11,ATTCGGGA,-0.0187
12,CCATCGTA,0.0579
13,AGTTTATC,0.249
14,CTTTGCCA,0.058
15,ATTGCGGC,0.283
16,CTGGAGGC,-0.0215
17,ATTATCTG,0.0535
18,GACAGACA,0.128
19,AACATGTC,0.0331
20,ACACGTCC,-0.21
21,CCGTCCGA,0.0655
22,CCAGTGGG,-0.202
23,ATAGAGTC,-0.143
24,ACCTTTGC,-0.133
25,GGTACTTA,-0.02

row,Sequence,PBM E-score
1,AGGTTAAC,0.00379
2,CATTGACG,0.0728
3,CCGTAGCA,0.228
4,GAACGAAA,-0.0367
5,CAGTAGCC,0.0177
6,AAATCGCT,-0.236
7,AGAGTATG,-0.303
8,CGATACAG,0.0202
9,CCAATTTC,0.0741
10,AAGATCGC,-0.0651
11,CCGGGAAG,-0.14
12,GGAAATCA,-0.0344
13,CCCCAAAG,-0.106
14,AGGTGCAA,-0.052
15,GTCGAGAA,0.0529
16,ATGGACAG,-0.0793
17,ATATCTCC,0.00413
18,GTGAAGAA,0.16
19,AGGGCGGG,-0.054
20,AGACCAAT,-0.0691
21,TACTTGAA,0.0539
22,GCAGTACA,0.0135
